# According to the supplement of paper PMC8728848:
# This is one part of the list.
# How the values were obtained:
# Test in all cases: glycan array binding signal (z-score within array); higher = stronger binding
# Conditions in all cases: glycan notation: IUPAC condensed, linker removed
# [1] = target: Fuc(a1-2)[GalNAc(b1-3)]Gal
# How it was run: (§1)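 Columns mapping to the same glycan were averaged after glycan names were converted to IUPAC-condensed notation. The data come from 3228 arrays in the Consortium for Functional Glycomics database, limited to those with an available protein sequence. Binding is reported as a within-array Z-score averaged across arrays of one protein sequence and across linkers.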
# Fuc(a1-3)GlcNAc = target: Fuc(a1-3)GlcNAc
# How it was run: as §1
# [2] = target: Fuc(a1-3)[Gal(b1-4)]Glc6S
# How it was run: as §1
# [3] = target: Fuc(a1-3)[Gal(b1-4)]GlcNAc
# How it was run: as §1
# [4] = target: Fuc(a1-3)[Gal(b1-4)]GlcNAc(b1-2)Man
# How it was run: as §1
# [5] = target: Fuc(a1-3)[Gal(b1-4)]GlcNAc(b1-2)Man(a1-3)[Fuc(a1-3)[Gal(b1-4)]GlcNAc(b1-2)Man(a1-6)]Man(b1-4)GlcNAc(b1-4)GlcNAc
# How it was run: as §1
# [6] = target: Fuc(a1-3)[Gal(b1-4)]GlcNAc(b1-2)Man(a1-3)[Fuc(a1-3)[Gal(b1-4)]GlcNAc(b1-2)Man(a1-6)]Man(b1-4)GlcNAc(b1-4)[Fuc(a1-6)]GlcNAc
# How it was run: as §1
# [7] = target: Fuc(a1-3)[Gal(b1-4)]GlcNAc(b1-3)Gal(b1-3)[Fuc(a1-4)]GlcNAc
# How it was run: as §1
# [8] = target: Fuc(a1-3)[Gal(b1-4)]GlcNAc(b1-3)Gal(b1-4)[Fuc(a1-3)]GlcNAc
# How it was run: as §1
# [9] = target: Fuc(a1-3)[Gal(b1-4)]GlcNAc(b1-3)Gal(b1-4)[Fuc(a1-3)]GlcNAc(b1-3)Gal(b1-4)[Fuc(a1-3)]GlcNAc
# How it was run: as §1
# [10] = target: Fuc(a1-3)[Gal(b1-4)]GlcNAc(b1-3)GalNAc
# How it was run: as §1
# [11] = target: Fuc(a1-3)[Gal(b1-4)]GlcNAc(b1-6)GalNAc
# How it was run: as §1
# [12] = target: Fuc(a1-3)[Gal(b1-4)]GlcNAc(b1-6)[Gal(b1-3)GlcNAc(b1-3)]Gal(b1-4)Glc
# How it was run: as §1
# [13] = target: Fuc(a1-3)[Gal(b1-4)]GlcNAc6S
# How it was run: as §1
# [14] = target: Fuc(a1-3)[Gal3S(b1-4)]Glc
# How it was run: as §1
# [15] = target: Fuc(a1-3)[Gal3S(b1-4)]GlcNAc
# How it was run: as §1
# [16] = target: Fuc(a1-3)[Gal3S(b1-4)]GlcNAc6S
# How it was run: as §1
# [17] = target: Fuc(a1-3)[GalNAc(b1-4)]GlcNAc
# How it was run: as §1
# [18] = target: Fuc(a1-3)[GalNAc(b1-4)]GlcNAc6S
# How it was run: as §1
# Fuc(a1-4)GlcNAc = target: Fuc(a1-4)GlcNAc
# How it was run: as §1
# Fuc(b1-3)GlcNAc = target: Fuc(b1-3)GlcNAc
# How it was run: as §1
# Gal(a1-2)Gal = target: Gal(a1-2)Gal
# How it was run: as §1
# Gal(a1-3)Gal = target: Gal(a1-3)Gal
# How it was run: as §1
# Gal(a1-3)Gal(b1-3)GlcNAc = target: Gal(a1-3)Gal(b1-3)GlcNAc
# How it was run: as §1
# [19] = target: Gal(a1-3)Gal(b1-3)GlcNAc(b1-2)Man
# How it was run: as §1
# [20] = target: Gal(a1-3)Gal(b1-3)GlcNAc(b1-2)Man(a1-3)[Gal(a1-3)Gal(b1-3)GlcNAc(b1-2)Man(a1-6)]Man(b1-4)GlcNAc(b1-4)GlcNAc
# How it was run: as §1
# [21] = target: Gal(a1-3)Gal(b1-3)GlcNAc(b1-3)GalNAc
# How it was run: as §1
# [22] = target: Gal(a1-3)Gal(b1-3)GlcNAc(b1-6)GalNAc
# How it was run: as §1
# [23] = target: Gal(a1-3)Gal(b1-3)[Fuc(a1-4)]GlcNAc(b1-2)Man(a1-3)[Gal(a1-3)Gal(b1-3)[Fuc(a1-4)]GlcNAc(b1-2)Man(a1-6)]Man(b1-4)GlcNAc(b1-4)GlcNAc
# How it was run: as §1
# Gal(a1-3)Gal(b1-4)Glc = target: Gal(a1-3)Gal(b1-4)Glc
# How it was run: as §1
# Gal(a1-3)Gal(b1-4)GlcNAc = target: Gal(a1-3)Gal(b1-4)GlcNAc
# How it was run: as §1
# [24] = target: Gal(a1-3)Gal(b1-4)GlcNAc(b1-2)Man
# How it was run: as §1
# [25] = target: Gal(a1-3)Gal(b1-4)GlcNAc(b1-2)Man(a1-3)[Gal(a1-3)Gal(b1-4)GlcNAc(b1-2)Man(a1-6)]Man(b1-4)GlcNAc(b1-4)GlcNAc
# How it was run: as §1
# [26] = target: Gal(a1-3)Gal(b1-4)GlcNAc(b1-3)GalNAc
# How it was run: as §1
# [27] = target: Gal(a1-3)Gal(b1-4)GlcNAc(b1-6)GalNAc
# How it was run: as §1
# [28] = target: Gal(a1-3)Gal(b1-4)[Fuc(a1-3)]GlcNAc
# How it was run: as §1
# [29] = target: Gal(a1-3)Gal(b1-4)[Fuc(a1-3)]GlcNAc(b1-2)Man(a1-3)[Gal(a1-3)Gal(b1-4)[Fuc(a1-3)]GlcNAc(b1-2)Man(a1-6)]Man(b1-4)GlcNAc(b1-4)GlcNAc
# How it was run: as §1
# Gal(a1-3)GalNAc = target: Gal(a1-3)GalNAc
# How it was run: as §1
# [30] = target: Gal(a1-3)[Gal(a1-4)]Gal(b1-4)GlcNAc
# How it was run: as §1
# [31] = target: Gal(a1-4)Gal(b1-3)GlcNAc(b1-2)Man(a1-3)[Gal(a1-4)Gal(b1-3)GlcNAc(b1-2)Man(a1-6)]Man(b1-4)GlcNAc(b1-4)GlcNAc
# How it was run: as §1
# Gal(a1-4)Gal(b1-4)Glc = target: Gal(a1-4)Gal(b1-4)Glc
# How it was run: as §1
# Gal(a1-4)Gal(b1-4)GlcNAc = target: Gal(a1-4)Gal(b1-4)GlcNAc
# How it was run: as §1
# [32] = target: Gal(a1-4)Gal(b1-4)GlcNAc(b1-2)Man(a1-3)[Gal(a1-4)Gal(b1-4)GlcNAc(b1-2)Man(a1-6)]Man(b1-4)GlcNAc(b1-4)GlcNAc
# How it was run: as §1
# [33] = target: Gal(a1-4)Gal(b1-4)GlcNAc(b1-3)Gal(b1-4)Glc
# How it was run: as §1
# Gal(a1-4)GlcNAc = target: Gal(a1-4)GlcNAc
# How it was run: as §1
binder,measurement,setting,value
SSR2 (Sclerotium rolfsii) (protein) MVYKITVRVYQTNPDAFFHPVEKTVWKYANGGTWSITDDQHVLTMGGSGTSGTLRFHADNGESFTATFGVHNYKRWCDIVTNLAADETGMVINQQYYSQKNREEARERQLSNYQVKNAKGRNFQIVYTEAEGNDLHANLIIG,glycan array binding signal (z-score),[1],-0.279
same,glycan array binding signal (z-score),Fuc(a1-3)GlcNAc,-0.29
same,glycan array binding signal (z-score),[2],-0.296
same,glycan array binding signal (z-score),[3],-0.284
same,glycan array binding signal (z-score),[4],-0.272
same,glycan array binding signal (z-score),[5],-0.291
same,glycan array binding signal (z-score),[6],-0.279
same,glycan array binding signal (z-score),[7],-0.29
same,glycan array binding signal (z-score),[8],-0.278
same,glycan array binding signal (z-score),[9],-0.266
same,glycan array binding signal (z-score),[10],-0.293
same,glycan array binding signal (z-score),[11],-0.284
same,glycan array binding signal (z-score),[12],-0.283
same,glycan array binding signal (z-score),[13],-0.279
same,glycan array binding signal (z-score),[14],-0.289
same,glycan array binding signal (z-score),[15],-0.276
same,glycan array binding signal (z-score),[16],-0.279
same,glycan array binding signal (z-score),[17],-0.282
same,glycan array binding signal (z-score),[18],-0.294
same,glycan array binding signal (z-score),Fuc(a1-4)GlcNAc,-0.281
same,glycan array binding signal (z-score),Fuc(b1-3)GlcNAc,-0.269
same,glycan array binding signal (z-score),Gal(a1-2)Gal,-0.28
same,glycan array binding signal (z-score),Gal(a1-3)Gal,-0.283
same,glycan array binding signal (z-score),Gal(a1-3)Gal(b1-3)GlcNAc,-0.27
same,glycan array binding signal (z-score),[19],-0.288
same,glycan array binding signal (z-score),[20],-0.262
same,glycan array binding signal (z-score),[21],-0.287
same,glycan array binding signal (z-score),[22],-0.29
same,glycan array binding signal (z-score),[23],-0.267
same,glycan array binding signal (z-score),Gal(a1-3)Gal(b1-4)Glc,-0.291
same,glycan array binding signal (z-score),Gal(a1-3)Gal(b1-4)GlcNAc,-0.292
same,glycan array binding signal (z-score),[24],-0.26
same,glycan array binding signal (z-score),[25],-0.269
same,glycan array binding signal (z-score),[26],-0.286
same,glycan array binding signal (z-score),[27],-0.281
same,glycan array binding signal (z-score),[28],-0.267
same,glycan array binding signal (z-score),[29],-0.235
same,glycan array binding signal (z-score),Gal(a1-3)GalNAc,-0.276
same,glycan array binding signal (z-score),[30],-0.299
same,glycan array binding signal (z-score),[31],-0.296
same,glycan array binding signal (z-score),Gal(a1-4)Gal(b1-4)Glc,-0.29
same,glycan array binding signal (z-score),Gal(a1-4)Gal(b1-4)GlcNAc,-0.271
same,glycan array binding signal (z-score),[32],-0.3
same,glycan array binding signal (z-score),[33],-0.285
same,glycan array binding signal (z-score),Gal(a1-4)GlcNAc,-0.28
